In article PMC3335008:
Results are given in words; binding and its absence hold for the method and conditions named. For part of these data: Binding seen in cells or lysates may run through a third protein. Some binding calls cover weakened binding; strength is not graded here. For part of these data: Sequences can lack the tags named with a protein. Values belong to the molecule of their own block, whether it stands above or below them.

The chains behind the UniProt entries cited, without tags or fusion partners.
UniProt O00425: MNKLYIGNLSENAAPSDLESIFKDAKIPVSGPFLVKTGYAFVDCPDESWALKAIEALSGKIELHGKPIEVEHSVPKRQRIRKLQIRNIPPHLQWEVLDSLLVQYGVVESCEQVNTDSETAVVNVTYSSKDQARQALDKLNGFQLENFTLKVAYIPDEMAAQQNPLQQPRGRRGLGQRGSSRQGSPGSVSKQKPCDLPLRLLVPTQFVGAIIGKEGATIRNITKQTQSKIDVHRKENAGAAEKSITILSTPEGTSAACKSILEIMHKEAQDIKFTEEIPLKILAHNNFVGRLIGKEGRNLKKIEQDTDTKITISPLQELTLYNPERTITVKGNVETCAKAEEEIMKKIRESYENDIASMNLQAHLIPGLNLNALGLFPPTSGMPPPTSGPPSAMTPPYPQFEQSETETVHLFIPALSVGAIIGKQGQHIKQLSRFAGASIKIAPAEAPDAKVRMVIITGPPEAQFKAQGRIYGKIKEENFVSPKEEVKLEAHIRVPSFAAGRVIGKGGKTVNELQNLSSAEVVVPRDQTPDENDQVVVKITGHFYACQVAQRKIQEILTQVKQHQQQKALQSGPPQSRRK
UniProt P11940: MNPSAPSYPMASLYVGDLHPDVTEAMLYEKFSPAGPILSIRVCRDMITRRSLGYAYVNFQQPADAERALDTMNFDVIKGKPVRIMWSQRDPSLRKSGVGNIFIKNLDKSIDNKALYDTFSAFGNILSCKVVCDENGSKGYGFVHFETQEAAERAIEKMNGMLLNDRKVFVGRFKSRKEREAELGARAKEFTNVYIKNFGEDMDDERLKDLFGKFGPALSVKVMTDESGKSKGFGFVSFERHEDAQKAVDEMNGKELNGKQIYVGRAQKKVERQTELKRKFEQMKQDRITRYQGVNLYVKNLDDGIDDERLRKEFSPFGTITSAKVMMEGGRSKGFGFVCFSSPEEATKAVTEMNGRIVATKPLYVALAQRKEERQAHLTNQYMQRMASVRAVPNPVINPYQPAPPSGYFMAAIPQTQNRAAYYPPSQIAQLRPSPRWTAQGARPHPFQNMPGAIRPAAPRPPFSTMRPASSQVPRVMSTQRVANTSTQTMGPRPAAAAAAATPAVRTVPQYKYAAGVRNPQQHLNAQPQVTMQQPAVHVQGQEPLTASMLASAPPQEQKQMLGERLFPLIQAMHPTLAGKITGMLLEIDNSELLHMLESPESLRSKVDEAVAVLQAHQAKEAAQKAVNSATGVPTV
UniProt Q02156: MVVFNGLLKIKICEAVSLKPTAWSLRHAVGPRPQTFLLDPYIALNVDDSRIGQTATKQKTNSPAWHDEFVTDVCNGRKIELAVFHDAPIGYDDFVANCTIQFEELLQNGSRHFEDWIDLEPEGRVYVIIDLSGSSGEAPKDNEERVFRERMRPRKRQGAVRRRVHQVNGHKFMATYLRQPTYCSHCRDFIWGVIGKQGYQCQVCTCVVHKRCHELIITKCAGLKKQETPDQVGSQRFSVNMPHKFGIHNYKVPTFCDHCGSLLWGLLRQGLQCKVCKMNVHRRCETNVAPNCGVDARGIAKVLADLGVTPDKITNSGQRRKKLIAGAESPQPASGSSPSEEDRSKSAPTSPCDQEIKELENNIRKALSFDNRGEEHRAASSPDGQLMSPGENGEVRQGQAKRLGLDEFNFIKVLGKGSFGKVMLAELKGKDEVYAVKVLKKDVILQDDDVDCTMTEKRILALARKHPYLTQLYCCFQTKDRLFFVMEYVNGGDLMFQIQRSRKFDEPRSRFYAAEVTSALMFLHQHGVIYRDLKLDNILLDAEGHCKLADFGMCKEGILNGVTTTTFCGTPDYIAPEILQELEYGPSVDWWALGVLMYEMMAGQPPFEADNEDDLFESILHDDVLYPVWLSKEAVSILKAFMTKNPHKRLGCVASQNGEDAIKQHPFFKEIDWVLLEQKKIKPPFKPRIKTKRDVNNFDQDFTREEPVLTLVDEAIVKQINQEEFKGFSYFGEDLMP

Key:
[1] = molecular target: T1, RasGAP binding protein 2 (G3BP2), endogenous (human (endogenous in SK-N-BE(2)C)) (UniProt Q9UN86); assay: co-IP; PKCα or G3BP2 immunoprecipitated from SK-N-BE(2)C lysate treated with RNase; lysis buffer 150 mM NaCl, 1% triton X-100, 50 mM Tris HCl, pH 8.0; Western blot
T1 sequence: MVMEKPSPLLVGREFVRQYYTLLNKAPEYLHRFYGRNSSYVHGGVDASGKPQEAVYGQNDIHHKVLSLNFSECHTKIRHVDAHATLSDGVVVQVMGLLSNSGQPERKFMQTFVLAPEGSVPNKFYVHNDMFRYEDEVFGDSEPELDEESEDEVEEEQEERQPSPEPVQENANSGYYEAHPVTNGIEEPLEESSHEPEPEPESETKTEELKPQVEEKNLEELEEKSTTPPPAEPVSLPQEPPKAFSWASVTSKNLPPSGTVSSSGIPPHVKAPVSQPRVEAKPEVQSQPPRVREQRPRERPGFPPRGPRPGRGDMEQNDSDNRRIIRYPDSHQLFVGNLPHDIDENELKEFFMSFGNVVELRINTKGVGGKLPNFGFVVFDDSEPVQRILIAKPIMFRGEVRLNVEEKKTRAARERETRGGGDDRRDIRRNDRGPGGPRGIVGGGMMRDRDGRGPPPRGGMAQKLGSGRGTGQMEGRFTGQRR

[2] = molecular target: T1, RasGAP binding protein 2 (G3BP2), endogenous (human (endogenous in SK-N-BE(2)C)); assay: co-IP; PKCα or G3BP2 immunoprecipitated from SK-N-BE(2)C lysate treated with RNase inhibitor; lysis buffer 150 mM NaCl, 1% triton X-100, 50 mM Tris HCl, pH 8.0; Western blot
[3] = molecular target: GST/His fusion of G3BP1 (human (cDNA from MDA-MB-231 cells)) (UniProt Q13283); assay: pull-down; 80 ng PKCα with 4 µg GST-G3BP recombinant protein in 100 µl 20 mM Tris pH 7.4, 0.1 mM EDTA, 100 mM NaCl, 1 mM DTT, 1 h at 4°C; GST captured (anti-GST MicroBeads in the methods, GSH-coupled sepharose in the legend); Western blot; both purified
GST/His fusion of G3BP2b = molecular target: T2, GST/His fusion of G3BP2b (UniProt Q9UN86); assay: as above
T2 sequence: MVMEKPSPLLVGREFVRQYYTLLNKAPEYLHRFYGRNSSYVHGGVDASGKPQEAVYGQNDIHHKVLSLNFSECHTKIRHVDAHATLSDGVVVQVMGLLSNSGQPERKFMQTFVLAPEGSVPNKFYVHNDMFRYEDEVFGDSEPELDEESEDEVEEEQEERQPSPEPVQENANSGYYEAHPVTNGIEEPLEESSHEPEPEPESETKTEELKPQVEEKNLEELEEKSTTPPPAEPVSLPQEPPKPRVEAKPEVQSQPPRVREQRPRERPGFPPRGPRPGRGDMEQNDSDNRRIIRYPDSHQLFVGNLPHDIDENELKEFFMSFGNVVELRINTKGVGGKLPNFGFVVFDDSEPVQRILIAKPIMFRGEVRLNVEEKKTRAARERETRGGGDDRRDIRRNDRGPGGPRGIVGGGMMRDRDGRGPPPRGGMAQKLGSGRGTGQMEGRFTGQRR

[4] = molecular target: T3, GST/His fusion of G3BP2a (human (cDNA from MDA-MB-231 cells)) (UniProt Q9UN86); assay: as above
T3 sequence: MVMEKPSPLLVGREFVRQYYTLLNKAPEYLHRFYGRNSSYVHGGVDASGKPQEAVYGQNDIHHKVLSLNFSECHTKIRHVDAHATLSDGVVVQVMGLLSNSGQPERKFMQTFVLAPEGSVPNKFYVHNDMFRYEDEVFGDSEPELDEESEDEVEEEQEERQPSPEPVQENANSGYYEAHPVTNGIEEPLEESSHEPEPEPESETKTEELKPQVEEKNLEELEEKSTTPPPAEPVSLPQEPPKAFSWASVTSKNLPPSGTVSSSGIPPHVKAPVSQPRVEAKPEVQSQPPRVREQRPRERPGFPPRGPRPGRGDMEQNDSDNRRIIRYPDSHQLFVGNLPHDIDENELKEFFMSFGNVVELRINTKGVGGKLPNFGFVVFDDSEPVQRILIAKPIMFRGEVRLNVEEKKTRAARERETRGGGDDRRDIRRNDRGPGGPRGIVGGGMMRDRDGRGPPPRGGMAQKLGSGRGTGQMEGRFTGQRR

[5] = molecular target: T1, RasGAP binding protein 2 (G3BP2), endogenous (human (endogenous in SK-N-BE(2)C)); assay: co-IP; G3BP2 antibody on untreated SK-N-BE(2)C lysate (Fig. 2B); lysis buffer 150 mM NaCl, 1% triton X-100, 50 mM Tris HCl, pH 8.0; blot with PKCα and phospho-PKC antibodies
[6] = molecular target: IGF-II mRNA binding protein 3 (IGF2BP3), endogenous (human (endogenous in SK-N-BE(2)C)) (UniProt O00425); assay: co-IP; antibodies towards IGF2BP3, PABPC1 and G3BP2 on lysates of cells subjected to heat shock; precipitates analysed for PKCε
[7] = molecular target: T1, RasGAP binding protein 2 (G3BP2), endogenous (human (endogenous in SK-N-BE(2)C)); assay: as above
[8] = molecular target: IGF-II mRNA binding protein 3 (IGF2BP3), endogenous (human (endogenous in SK-N-BE(2)C)) (UniProt O00425); assay: co-IP; antibodies towards IGF2BP3, PABPC1 and G3BP2 on lysates of cells under normal growth conditions (no heat shock); precipitates analysed for PKCε
[9] = molecular target: cytoplasmic poly(A)+ binding protein (PABPC1), endogenous (human (endogenous in SK-N-BE(2)C)) (UniProt P11940); assay: as above
[10] = molecular target: T1, RasGAP binding protein 2 (G3BP2), endogenous (human (endogenous in SK-N-BE(2)C)); assay: as above
[11] = molecular target: T4, TIAR, endogenous (human (endogenous in SK-N-BE(2)C)) (UniProt Q01085); assay: co-IP; anti-TIAR on sonicated lysates of SK-N-BE(2)C cells transfected with EGFP, EGFP-C1a or EGFP-C1b and kept at 37°C or 44°C for 1 h; Western blot
T4 sequence: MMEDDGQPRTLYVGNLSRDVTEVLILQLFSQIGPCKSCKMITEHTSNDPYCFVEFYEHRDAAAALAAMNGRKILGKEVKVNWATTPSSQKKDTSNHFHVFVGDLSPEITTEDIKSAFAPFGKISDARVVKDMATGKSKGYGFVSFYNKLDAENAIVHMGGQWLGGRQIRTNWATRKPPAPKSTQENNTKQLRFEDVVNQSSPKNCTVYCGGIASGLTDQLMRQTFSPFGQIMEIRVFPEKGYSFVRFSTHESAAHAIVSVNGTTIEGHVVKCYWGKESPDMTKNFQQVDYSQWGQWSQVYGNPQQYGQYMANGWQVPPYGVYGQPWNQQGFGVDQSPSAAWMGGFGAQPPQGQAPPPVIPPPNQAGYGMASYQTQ

[12] = molecular target: Protein kinase C alpha (PKCα), endogenous (human (endogenous in SK-N-BE(2)C)) (UniProt P17252); assay: co-IP; PKCα or G3BP2 immunoprecipitated from SK-N-BE(2)C lysate treated with RNase; lysis buffer 150 mM NaCl, 1% triton X-100, 50 mM Tris HCl, pH 8.0; Western blot
[13] = molecular target: Protein kinase C alpha (PKCα), endogenous (human (endogenous in SK-N-BE(2)C)) (UniProt P17252); assay: co-IP; PKCα or G3BP2 immunoprecipitated from SK-N-BE(2)C lysate treated with RNase inhibitor; lysis buffer 150 mM NaCl, 1% triton X-100, 50 mM Tris HCl, pH 8.0; Western blot
[14] = molecular target: EGFP fusion of the C2 domain of PKCα (human) (UniProt P17252); assay: co-IP; EGFP fusions of PKCα domains expressed in SK-N-BE(2)C cells, precipitated with anti-GFP-conjugated magnetic beads; polysome lysis buffer (100 mM KCl, 5 mM MgCl2, 10 mM HEPES, 1 mM DTT, 1% IgePAL CA-630, pH 7.0); Western blot for endogenous partners

- binding [3]: binds
- binding (GST/His fusion of G3BP2b): binds
- binding [4]: binds
Molecule: PKCα isozyme (Sigma), recombinant (from UniProt P17252 1-672) (enzyme)

- binding [5]: binds
Molecule: slower migrating PKCα variant with both C-terminal phosphorylation sites phosphorylated, endogenous (from UniProt P17252 1-672)

- binding [11]: binds
- binding [12]: binds
- binding [13]: binds
- binding [14]: binds
B1: RasGAP binding protein 2 (G3BP2), endogenous (protein, UniProt Q9UN86 1-482)
chain: MVMEKPSPLLVGREFVRQYYTLLNKAPEYLHRFYGRNSSYVHGGVDASGKPQEAVYGQNDIHHKVLSLNFSECHTKIRHVDAHATLSDGVVVQVMGLLSNSGQPERKFMQTFVLAPEGSVPNKFYVHNDMFRYEDEVFGDSEPELDEESEDEVEEEQEERQPSPEPVQENANSGYYEAHPVTNGIEEPLEESSHEPEPEPESETKTEELKPQVEEKNLEELEEKSTTPPPAEPVSLPQEPPKAFSWASVTSKNLPPSGTVSSSGIPPHVKAPVSQPRVEAKPEVQSQPPRVREQRPRERPGFPPRGPRPGRGDMEQNDSDNRRIIRYPDSHQLFVGNLPHDIDENELKEFFMSFGNVVELRINTKGVGGKLPNFGFVVFDDSEPVQRILIAKPIMFRGEVRLNVEEKKTRAARERETRGGGDDRRDIRRNDRGPGGPRGIVGGGMMRDRDGRGPPPRGGMAQKLGSGRGTGQMEGRFTGQRR

The next lines start with the molecule.

Molecule: Protein kinase C alpha (PKCα), endogenous (from UniProt P17252 1-672)
- binding [1]: binds
- binding [2]: binds

Molecule: Protein kinase C epsilon (PKCε), endogenous (from UniProt Q02156 1-737)
- binding [6]: binds
- binding [7]: binds
- binding [8]: no binding (condition: cells without heat shock)
- binding [9]: no binding
- binding [10]: no binding (condition: cells without heat shock)
